Source: the supplement of paper PMC8948288
The sequences are guide strands of siRNAs; only the seed at positions 2 to 7 varies.

Experiments:
[1] = tested on: GL261; assay: cell viability relative to siNT1 (ATP content); H4 human neuroglioma and GL261 mouse glioma; higher = less toxic; settings: siRNA concentration 25 nM; 96 h; mouse
Description: (§1)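 Arrayed screen of all 4096 6mer seeds. Each seed sits at guide-strand positions 2-7 of a neutral 19mer siRNA backbone (siNT1-based, passenger strand 2'-O-methyl modified at positions 1-2 to block RISC loading, 3' DNA overhangs). The guide strand is built here as U + seed + ACAUGUAAACCA. Cells were reverse transfected in triplicate in 384-well plates (H4 at 10 nM, GL261 at 25 nM) with Lipofectamine RNAiMAX. Viability was read as ATP content (CellTiter-Glo) 96 h after transfection and normalised to siNT1 (%).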

[2] = tested on: H4; assay: as above; settings: siRNA concentration 10 nM; 96 h; human
Description: as §1
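Note: cells reverse transfected with siRNA duplexes via lipid reagent, ATP read by luminescence, triplicate wells, values scaled to mean viability with non-targeting control siNT1.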

UCCACUGACAUGUAAACCA
cell viability [1]: 44.9%
cell viability [2]: 82.8%

UCCACUUACAUGUAAACCA
cell viability [1]: 50.2%
cell viability [2]: 71.1%

UCCAGAAACAUGUAAACCA
cell viability [1]: 69.9%
cell viability [2]: 86.4%

UCCAGACACAUGUAAACCA
cell viability [1]: 10.6%
cell viability [2]: 32.3%

UCCAGAGACAUGUAAACCA
cell viability [1]: 46.1%
cell viability [2]: 72.5%

UCCAGAUACAUGUAAACCA
cell viability [1]: 42.1%
cell viability [2]: 59.6%

UCCAGCAACAUGUAAACCA
cell viability [1]: 20.7%
cell viability [2]: 66%

UCCAGCCACAUGUAAACCA
cell viability [1]: 6.26%
cell viability [2]: 16.5%

UCCAGCGACAUGUAAACCA
cell viability [1]: 28.6%
cell viability [2]: 57%

UCCAGCUACAUGUAAACCA
cell viability [1]: 13.9%
cell viability [2]: 33.2%

UCCAGGAACAUGUAAACCA
cell viability [1]: 36.7%
cell viability [2]: 71.2%

UCCAGGCACAUGUAAACCA
cell viability [1]: 25.2%
cell viability [2]: 13.1%

UCCAGGGACAUGUAAACCA
cell viability [1]: 15.8%
cell viability [2]: 39.8%

UCCAGGUACAUGUAAACCA
cell viability [1]: 28.9%
cell viability [2]: 32.2%

UCCAGUAACAUGUAAACCA
cell viability [1]: 36.3%
cell viability [2]: 106%

UCCAGUCACAUGUAAACCA
cell viability [1]: 28.6%
cell viability [2]: 40.4%

UCCAGUGACAUGUAAACCA
cell viability [1]: 34.6%
cell viability [2]: 81.9%

UCCAGUUACAUGUAAACCA
cell viability [1]: 26.4%
cell viability [2]: 71%

UCCAUAAACAUGUAAACCA
cell viability [1]: 34.4%
cell viability [2]: 78.8%

UCCAUACACAUGUAAACCA
cell viability [1]: 23.5%
cell viability [2]: 72.3%

UCCAUAGACAUGUAAACCA
cell viability [1]: 22%
cell viability [2]: 108%

UCCAUAUACAUGUAAACCA
cell viability [1]: 34.6%
cell viability [2]: 75.6%

UCCAUCAACAUGUAAACCA
cell viability [1]: 23.2%
cell viability [2]: 110%

UCCAUCCACAUGUAAACCA
cell viability [1]: 9.21%
cell viability [2]: 3.36%

UCCAUCGACAUGUAAACCA
cell viability [1]: 34.3%
cell viability [2]: 83.9%

UCCAUCUACAUGUAAACCA
cell viability [1]: 19.4%
cell viability [2]: 45.9%

UCCAUGAACAUGUAAACCA
cell viability [1]: 36.8%
cell viability [2]: 109%

UCCAUGCACAUGUAAACCA
cell viability [1]: 10.1%
cell viability [2]: 18.8%

UCCAUGGACAUGUAAACCA
cell viability [1]: 12.1%
cell viability [2]: 15.4%

UCCAUGUACAUGUAAACCA
cell viability [1]: 20.3%
cell viability [2]: 34.9%

UCCAUUAACAUGUAAACCA
cell viability [1]: 41.2%
cell viability [2]: 94.1%

UCCAUUCACAUGUAAACCA
cell viability [1]: 21.4%
cell viability [2]: 61.1%

UCCAUUGACAUGUAAACCA
cell viability [1]: 62.6%
cell viability [2]: 108%

UCCAUUUACAUGUAAACCA
cell viability [1]: 39.3%
cell viability [2]: 73.8%

UCCCAAAACAUGUAAACCA
cell viability [1]: 70%
cell viability [2]: 79.1%

UCCCAACACAUGUAAACCA
cell viability [1]: 43.5%
cell viability [2]: 77.4%

UCCCAAGACAUGUAAACCA
cell viability [1]: 56.7%
cell viability [2]: 88%

UCCCAAUACAUGUAAACCA
cell viability [1]: 62.9%
cell viability [2]: 109%

UCCCACAACAUGUAAACCA
cell viability [1]: 37.9%
cell viability [2]: 80.9%

UCCCACCACAUGUAAACCA
cell viability [1]: 17.2%
cell viability [2]: 34.2%

UCCCACGACAUGUAAACCA
cell viability [1]: 27.7%
cell viability [2]: 70%

UCCCACUACAUGUAAACCA
cell viability [1]: 77.6%
cell viability [2]: 96.9%

UCCCAGAACAUGUAAACCA
cell viability [1]: 40.5%
cell viability [2]: 67.8%

UCCCAGCACAUGUAAACCA
cell viability [1]: 12.1%
cell viability [2]: 5.22%

UCCCAGGACAUGUAAACCA
cell viability [1]: 45.9%
cell viability [2]: 80.2%

UCCCAGUACAUGUAAACCA
cell viability [1]: 16.3%
cell viability [2]: 82.9%

UCCCAUAACAUGUAAACCA
cell viability [1]: 40.4%
cell viability [2]: 112%

UCCCAUCACAUGUAAACCA
cell viability [1]: 28.1%
cell viability [2]: 86.1%

UCCCAUGACAUGUAAACCA
cell viability [1]: 33.3%
cell viability [2]: 77.2%

UCCCAUUACAUGUAAACCA
cell viability [1]: 34.8%
cell viability [2]: 89.7%

UCCCCAAACAUGUAAACCA
cell viability [1]: 65.3%
cell viability [2]: 112%

UCCCCACACAUGUAAACCA
cell viability [1]: 46.1%
cell viability [2]: 55.7%

UCCCCAGACAUGUAAACCA
cell viability [1]: 42.3%
cell viability [2]: 69.6%

UCCCCAUACAUGUAAACCA
cell viability [1]: 55.6%
cell viability [2]: 70.5%

UCCCCCAACAUGUAAACCA
cell viability [1]: 49.3%
cell viability [2]: 48.1%

UCCCCCCACAUGUAAACCA
cell viability [1]: 34.2%
cell viability [2]: 12.7%

UCCCCCGACAUGUAAACCA
cell viability [1]: 53.4%
cell viability [2]: 73.8%

UCCCCCUACAUGUAAACCA
cell viability [1]: 40.2%
cell viability [2]: 65.5%

UCCCCGAACAUGUAAACCA
cell viability [1]: 90.2%
cell viability [2]: 103%

UCCCCGCACAUGUAAACCA
cell viability [1]: 24.1%
cell viability [2]: 40.6%

UCCCCGGACAUGUAAACCA
cell viability [1]: 75.6%
cell viability [2]: 59%

UCCCCGUACAUGUAAACCA
cell viability [1]: 89%
cell viability [2]: 84.1%

UCCCCUAACAUGUAAACCA
cell viability [1]: 95.3%
cell viability [2]: 108%

UCCCCUCACAUGUAAACCA
cell viability [1]: 37.1%
cell viability [2]: 39.6%

UCCCCUGACAUGUAAACCA
cell viability [1]: 72.1%
cell viability [2]: 113%

UCCCCUUACAUGUAAACCA
cell viability [1]: 80.9%
cell viability [2]: 74.8%

UCCCGAAACAUGUAAACCA
cell viability [1]: 50.2%
cell viability [2]: 75.1%

UCCCGACACAUGUAAACCA
cell viability [1]: 29.5%
cell viability [2]: 58.5%

UCCCGAGACAUGUAAACCA
cell viability [1]: 79.8%
cell viability [2]: 69.2%

UCCCGAUACAUGUAAACCA
cell viability [1]: 72.5%
cell viability [2]: 68.6%

UCCCGCAACAUGUAAACCA
cell viability [1]: 46.1%
cell viability [2]: 62.2%

UCCCGCCACAUGUAAACCA
cell viability [1]: 13.1%
cell viability [2]: 15.7%

UCCCGCGACAUGUAAACCA
cell viability [1]: 56.3%
cell viability [2]: 87.4%

UCCCGCUACAUGUAAACCA
cell viability [1]: 23%
cell viability [2]: 54.8%

UCCCGGAACAUGUAAACCA
cell viability [1]: 69.6%
cell viability [2]: 60.5%

UCCCGGCACAUGUAAACCA
cell viability [1]: 16.7%
cell viability [2]: 31.9%

UCCCGGGACAUGUAAACCA
cell viability [1]: 68.9%
cell viability [2]: 73%

UCCCGGUACAUGUAAACCA
cell viability [1]: 42%
cell viability [2]: 49.5%

UCCCGUAACAUGUAAACCA
cell viability [1]: 65.5%
cell viability [2]: 68%

UCCCGUCACAUGUAAACCA
cell viability [1]: 47.1%
cell viability [2]: 46.3%

UCCCGUGACAUGUAAACCA
cell viability [1]: 69.7%
cell viability [2]: 75.2%

UCCCGUUACAUGUAAACCA
cell viability [1]: 61%
cell viability [2]: 98.3%

UCCCUAAACAUGUAAACCA
cell viability [1]: 36.4%
cell viability [2]: 76.8%

UCCCUACACAUGUAAACCA
cell viability [1]: 50.1%
cell viability [2]: 83.3%

UCCCUAGACAUGUAAACCA
cell viability [1]: 57.5%
cell viability [2]: 91.3%

UCCCUAUACAUGUAAACCA
cell viability [1]: 35.1%
cell viability [2]: 72.9%
